{
  "source": "paper PMC6919601",
  "about": "“Identification of Plasmodium dipeptidyl aminopeptidase allosteric inhibitors by high throughput screening” (PLoS ONE, 2019)",
  "note": "The whole screen tested about 110,000 compounds, of which about 230 (0.21%) showed an effect of 50% or more. The list shows a part of the results.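 Note: 30 min substrate incubation versus DMSO and 10 µM JCP410 controls.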",
  "data": [
    {"molecular_target": "DPAP1 (Plasmodium falciparum, UniProt Q8IIJ9)", "sequence (Q8IIJ9 whole entry, looked up)": "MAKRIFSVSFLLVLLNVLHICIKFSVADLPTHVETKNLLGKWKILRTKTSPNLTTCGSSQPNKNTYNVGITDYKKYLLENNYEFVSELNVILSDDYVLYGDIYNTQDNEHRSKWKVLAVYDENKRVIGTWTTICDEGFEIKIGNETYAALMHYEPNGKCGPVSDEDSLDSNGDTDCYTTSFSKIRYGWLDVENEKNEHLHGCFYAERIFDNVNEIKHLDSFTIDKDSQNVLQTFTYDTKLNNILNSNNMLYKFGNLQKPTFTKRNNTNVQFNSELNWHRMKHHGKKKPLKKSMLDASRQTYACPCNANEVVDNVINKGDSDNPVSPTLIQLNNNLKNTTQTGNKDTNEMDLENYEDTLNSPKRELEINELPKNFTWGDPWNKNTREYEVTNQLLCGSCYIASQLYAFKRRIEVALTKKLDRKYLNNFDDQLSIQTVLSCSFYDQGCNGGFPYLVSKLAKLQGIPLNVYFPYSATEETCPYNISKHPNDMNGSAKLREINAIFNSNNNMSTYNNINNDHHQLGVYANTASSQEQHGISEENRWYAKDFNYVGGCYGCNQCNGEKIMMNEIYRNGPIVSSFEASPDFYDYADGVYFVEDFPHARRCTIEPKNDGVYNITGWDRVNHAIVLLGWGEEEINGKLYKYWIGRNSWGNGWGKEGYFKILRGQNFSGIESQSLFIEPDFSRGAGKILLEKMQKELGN", "test": "primary screen, percent inhibition; read by cleavage of a fluorogenic dipeptide substrate; higher = more effect of the substance", "parameters": "species or system P. falciparum D10 trophozoite lysates; single well", "units": {"% Inhibition @ 10 uM": "%"}, "values": [
      {"smiles": "CC(C)C(=O)Nc1nc(O)c2c(n1)NC(C)C(C)N2C(=O)c1ccc[n+](C)c1", "note": "(stereo not drawn)", "% Inhibition @ 10 uM": -4.68},
      {"smiles": "COc1ccc(C(=O)CSc2nn3c(SCC(=O)c4ccc(OC)cc4)nnc3s2)cc1", "% Inhibition @ 10 uM": 8.96},
      {"smiles": "O=C(O)CCC1CN(C(=O)c2ccccc2)c2ccccc21", "note": "(stereo not drawn)", "% Inhibition @ 10 uM": 4.11},
      {"smiles": "CCOc1ccccc1N1CCN(Cc2ccc(OC)c(C)c2OC)CC1", "% Inhibition @ 10 uM": -1.32},
      {"smiles": "CCOC(=O)C1=C(CS(=O)(=O)c2ccc(F)c(Cl)c2)NC(=O)NC1c1cccc(OC)c1", "note": "(stereo not drawn)", "% Inhibition @ 10 uM": -5.79},
      {"smiles": "N#CC1=C(N)Oc2c(c(O)nc3ccccc23)C1c1cccc(F)c1", "note": "(stereo not drawn)", "% Inhibition @ 10 uM": 23.8},
      {"smiles": "CC(C)c1ccc(-n2nnc(-c3nc(-c4ccc(Cl)cc4)no3)c2N)cc1", "% Inhibition @ 10 uM": 1.4},
      {"smiles": "FC(F)(F)c1ccccc1CNc1ccc2c(c1)OCO2", "% Inhibition @ 10 uM": -3.6},
      {"smiles": "COc1ccc(-c2csc3ncn(CC(=O)Nc4ccc(C)cc4)c(=O)c23)cc1", "% Inhibition @ 10 uM": 1.8},
      {"smiles": "CC(C)(C)CC(OC(=O)N1CCOCC1)C(=O)NC1CCCN(C(=O)OCc2ccccc2)CC1=O", "note": "(stereo not drawn)", "% Inhibition @ 10 uM": 1.35},
      {"smiles": "COc1ccc(OC2CCN(S(=O)(=O)c3ccc(C(C)=O)cc3)CC2)cc1", "% Inhibition @ 10 uM": 2.29},
      {"smiles": "CC(C)Sc1ncc(Cl)c(C(=O)Nc2nc3ccc(F)cc3s2)n1", "% Inhibition @ 10 uM": -0.946},
      {"smiles": "O=C(CCN1C(=O)c2ccccc2Sc2ncccc21)NCc1ccc2c(c1)OCO2", "% Inhibition @ 10 uM": -1.81},
      {"smiles": "COCCCn1c(SCc2ccccc2C#N)nc2c(sc3ccccc32)c1=O", "% Inhibition @ 10 uM": 11.4},
      {"smiles": "O=C(CSc1nc2ccccc2o1)Nc1cccc2ccccc12", "% Inhibition @ 10 uM": -3.84},
      {"smiles": "N#CC(Nc1ccccc1)c1ccc(Br)cc1", "note": "(stereo not drawn)", "% Inhibition @ 10 uM": 2.15},
      {"smiles": "CS(=O)(=O)CCC(C(=O)NCc1ccc(CN2CCOCC2)o1)N1Cc2ccccc2C1=O", "note": "(stereo not drawn)", "% Inhibition @ 10 uM": 4.36},
      {"smiles": "N#Cc1cc2c(nc1SCCN1C(=O)c3ccccc3C1=O)CCC2", "% Inhibition @ 10 uM": 2.68},
      {"smiles": "COc1cc(OC)cc(C(=O)N2N=C(C)CC2(O)C(F)F)c1", "note": "(stereo not drawn)", "% Inhibition @ 10 uM": -4.82},
      {"smiles": "O=[N+]([O-])c1ccc2nccc(O)c2c1", "% Inhibition @ 10 uM": 2.23},
      {"smiles": "COc1ccc(CC(=O)N2CCC3(CC2)N=C(c2ccccc2)C(=O)N3)cc1", "% Inhibition @ 10 uM": 3.24},
      {"smiles": "Cc1ccc2onc(CNC(=O)NCCc3ccc(Cl)cc3)c2c1", "% Inhibition @ 10 uM": -1.97},
      {"smiles": "O=C(O)c1ccc(/C=C/c2ccc3cccc(O)c3n2)cc1", "% Inhibition @ 10 uM": 7.26},
      {"smiles": "COc1ccc(CNC(=O)C2CCN(S(C)(=O)=O)CC2)c(OC)c1", "% Inhibition @ 10 uM": 0.387},
      {"smiles": "Cc1ccc2oc(=O)c3cc(C(=O)N4CC(C)CC(C)C4)sc3c2c1", "note": "(stereo not drawn)", "% Inhibition @ 10 uM": -2.75},
      {"smiles": "CC(C)CCNC(=O)c1ccc2nc(-c3ccco3)c(-c3ccco3)nc2c1", "% Inhibition @ 10 uM": 10.7},
      {"smiles": "CC1(C)CC(=O)C(/C=N/Cc2ccc(F)cc2)=C(O)C1", "% Inhibition @ 10 uM": 8.01}
    ]}
  ]
}
